According to PubChem BioAssay AID1345083 (National Center for Advancing Translational Sciences (NCATS), 2018):
The whole screen tested about 94,000 compounds, of which about 6,200 (6.6%) were called active. The shares of active, inactive and inconclusive entries below differ from those in the screen. Calls follow the shape of the dose curve; as a rule, active = well fitted inhibition curve with a large enough effect; inconclusive = small, poorly fitted or top-dose-only effect; inactive = flat fitted curve, though single readings scatter. Potencies of inconclusive entries are doubtful fits and often do not repeat.

Assay: Cytotoxic Profiling in HEK 293 Cell Line of Diverse Libraries Using Quantitative High-Throughput Screening; also: nearly all actives have a fitted effect of over 60% in size
Settings: HEK 293 viability, ATP luminescence (CellTiter-Glo), 48-72 h; series mostly up to 115 µM
Outline: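 HEK 293 seeded at 250 cells/well receive compound via pintool. After 48 or 72 hr at 37 degree Celsius, 5% CO2 and 95% humidity, CellTiter-Glo is dispensed and luminescence read following 10 min at room temperature.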
Potency is read from the fitted curve at half-maximal effect; tags tell the direction and shape of the fitted curve.

Compound	Potency
CCOc1ccc(C(=O)NC2CCN(c3cc(-c4ccc(F)cc4)[nH]n3)CC2)cc1	inconclusive: 89.1 µM [inhibitor, single point]
COc1ccc(CCN2CC(NC(=O)Cn3ccc(C)n3)CC2=O)cc1 (configuration not stated)	inactive
Cc1ccc(Nc2ccnc(N3CCCC3C(=O)NCCc3ccccc3)n2)cc1 (configuration not stated)	inconclusive: 22.4 µM [inhibitor, partial curve, poor fit]
Cc1nc2n(c1C(=O)Nc1cc(-c3ccc(F)cc3)[nH]n1)CCC(Nc1ccc(F)cc1)C2 (configuration not stated)	inconclusive: 50.1 µM [inhibitor, partial curve, poor fit]
Cc1cnn(CCC(=O)N2CCC3(CC2)CN(Cc2ccccc2)CC3CO)c1 (configuration not stated)	inconclusive: 39.8 µM [inhibitor, partial curve]
Cc1nn2c(c1-c1ccccc1Oc1ccccc1)N(C(=O)c1ccccc1)CCC2	active: 56.2 µM
Cc1nn(-c2ccc(C(C)C)cc2)c(C)c1[C@@H]1C=C[C@@H](NC(=S)NCC(C)C)C1	active: 25.1 µM
COc1cccc(S(=O)(=O)N2CC(N(C3CCOCC3)S(C)(=O)=O)C2)c1	inactive
O=C1CCN(CC(O)C(F)(F)F)c2ccccc2CN1Cc1ccccc1 (configuration not stated)	inconclusive: 50.1 µM [inhibitor, partial curve, poor fit]
O=C(NCc1ccc(C(F)(F)F)cc1)c1nc2cccnc2n(Cc2ccccc2)c1=O	inconclusive: 44.7 µM [inhibitor, partial curve, poor fit]
CN1C(=O)c2cccn2CC1CNC(=O)CCc1nc(-c2ccccc2)no1 (configuration not stated)	inconclusive: 89.1 µM [inhibitor, single point]
N#Cc1ccc(CN2CCC3(CC(c4cccc(C(F)(F)F)c4)=NO3)C2)cc1 (configuration not stated)	inconclusive: 50.1 µM [inhibitor, partial curve, poor fit]
O=C(NCCC1CCN(C(=O)Nc2cc(F)cc(F)c2)CC1)c1ccc2nc[nH]c2c1	inactive
CC1CCN(CCCNC(=O)C2CCCN(Cc3ccncc3)CCC(=O)NCC2)CC1 (configuration not stated)	inconclusive: 100 µM [inhibitor, single point]
CC(=O)N1CCC(C2CCN(C(=O)c3cc(C)n(C)n3)C2)CC1 (configuration not stated)	inactive
Cc1ccc(NC(=O)Cn2c(N3CCOCC3)nc(C)cc2=O)c(Cl)c1	inactive
Cc1ccc(C(=O)N2CCC3(CC2)N=C(c2ccc(Cl)cc2)NO3)cc1	inconclusive: 39.8 µM [inhibitor, partial curve, poor fit]
CCc1nc(CN2CCOc3c(O)cc(-c4nc(C)cnc4C)cc3C2)no1	inactive
O=C(Cc1ccc(F)cc1)N1CCN(C(=O)c2cccc(-c3ccccn3)c2)CC1	inconclusive: 56.2 µM [inhibitor, partial curve, poor fit]
COc1ccc(C(=O)N2CCC(C(=O)N3CCC(c4nc5ncccc5[nH]4)C3)CC2)cc1 (configuration not stated)	inactive
CN(Cc1ccccc1CN1CCCC1)c1nccc(-c2ccccn2)n1	inconclusive: 50.1 µM [inhibitor, partial curve, poor fit]

Compound	Potency
O=C(CC1CCCCC1)N1CCC2(CC1)CC(O)CCO2 (configuration not stated)	inactive
Cc1ccc(CN2CC[C@@H]3[C@H]2C(=O)NC[C@H](CCC(=O)NCc2ccco2)N3C)cc1	inconclusive: 79.4 µM [inhibitor, partial curve]
CC(=O)Nc1ccc(C(=O)N2CCC3(CC2)N=C(c2cccc(Br)c2)NO3)cc1	inconclusive: 50.1 µM [inhibitor, partial curve, poor fit]
CN(C)[C@@H]1CN(C(=O)c2ccc(F)cc2F)C[C@H]1CO	inactive
O=C(CC1CCCCC1)NC1CCN(c2cnn(CC3CC3)c(=O)c2)CC1	inconclusive: 89.1 µM [inhibitor, single point]
COC(=O)[C@@H]1Cc2ncn(Cc3ccc(OC)cc3)c2CN1C(=O)CC(C)(C)C	inconclusive: 126 µM [inhibitor, single point]
CCN(CCN(C)C)C(=O)c1cn(CC2COc3ccccc3O2)nn1 (configuration not stated)	inactive
Clc1ccc(-c2nnc([C@H]3CCN(Cc4c[nH]c5ccccc45)C3)o2)cc1	inconclusive: 112 µM [inhibitor, partial curve, poor fit]
O=C(NCc1nnc2c(-c3nc(C4CC4)no3)cccn12)c1cc(Cl)ccc1F	inconclusive: 100 µM [inhibitor, single point]
Cc1nn(-c2ccccc2)c2c1C(C1CC1)N(C1CN([S+](=O)([O-])c3ccccc3)C1)C2=O (configuration not stated)	inconclusive: 89.1 µM [inhibitor, partial curve, poor fit]
CC1CCN(C(=O)c2cc3c(s2)CCC(C(=O)NCCCN2CCOCC2)C3)CC1 (configuration not stated)	inconclusive: 22.4 µM [inhibitor, partial curve, poor fit]
CC(C)CN1CCC2(CC1)CC(C(=O)N1CCOCC1)N(C)C2 (configuration not stated)	inactive
COc1ccc(NC(=O)N2CC(Oc3cccc(-c4nc(C)no4)c3)C2)cc1	inconclusive: 56.2 µM [inhibitor, partial curve, poor fit]
COc1ccc(CCC(=O)N2CCCC(Cn3c(C)cnc3-c3ccncc3)C2)cc1 (configuration not stated)	inactive
CN(C)C1(CC2CC2)CCN(Cc2cccc(F)c2)CC1	inactive
O=C(Nc1ccccc1F)N1CCC(F)(C(=O)NC2CC2)CC1	inactive
Cc1ccc(NC(=O)N2CC(N3C(=O)c4c(c(C)nn4-c4ccccc4)C3C3CC3)C2)cc1F (configuration not stated)	inconclusive: 35.5 µM [inhibitor, full curve, poor fit]
O=C(c1cccc(Cl)c1)N1CCN(c2nccc(Nc3ccccc3Cl)n2)CC1	inconclusive: 50.1 µM [inhibitor, partial curve, poor fit]
COc1cccc(NC(=O)c2cc3c(N4CCSCC4)nc(C)cn3n2)c1	inconclusive: 22.4 µM [inhibitor, full curve, poor fit]
O=C(C1CN(C2CCCCC2)C(=O)N1)N1CCN(Cc2ccccc2)CC1 (configuration not stated)	inactive
Cc1cccc(-c2noc([C@@H]3Cc4nc[nH]c4CN3C(=O)Nc3cccc(F)c3)n2)c1	active: 70.8 µM
